# Among all 200,000 compounds or so, about 4,500 (2.2%) were called active. The inconclusive results got no clear call from the source; some entries with a clear call stand among them for comparison. The call rests on the fitted dose curve; in most records, active means well fitted inhibition curve with a large enough effect; inconclusive means small, poorly fitted or top-dose-only effect, or effect the other way; inactive means flat fitted curve, though single readings scatter. Potencies of inconclusive entries are doubtful fits and often do not repeat.
# Biological target: Cruzipain (Trypanosoma cruzi) (UniProt P25779)
# UniProt P25779, sequence (P25779 whole entry, looked up): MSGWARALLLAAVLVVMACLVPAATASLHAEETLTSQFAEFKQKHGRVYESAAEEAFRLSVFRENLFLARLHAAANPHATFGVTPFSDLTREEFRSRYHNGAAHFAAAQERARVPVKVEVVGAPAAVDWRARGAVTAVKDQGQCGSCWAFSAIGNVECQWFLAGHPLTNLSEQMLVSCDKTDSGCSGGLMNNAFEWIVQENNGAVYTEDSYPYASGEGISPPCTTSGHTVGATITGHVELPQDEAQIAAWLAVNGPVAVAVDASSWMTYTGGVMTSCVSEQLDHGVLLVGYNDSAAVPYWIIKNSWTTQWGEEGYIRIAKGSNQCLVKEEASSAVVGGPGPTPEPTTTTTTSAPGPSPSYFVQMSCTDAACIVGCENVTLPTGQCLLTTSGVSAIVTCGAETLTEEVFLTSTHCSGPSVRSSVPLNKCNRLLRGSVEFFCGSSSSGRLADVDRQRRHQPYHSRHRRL
# Test: qHTS Assay for Promiscuous and Specific Inhibitors of Cruzain (without detergent); further: nearly all actives have a fitted effect of over 40% in size;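 on max response, negative = inhibition: plate controls were enzyme without inhibitor for no effect and buffer without enzyme for full effect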
# Conditions: purified cruzain, Z-FR-AMC fluorescence, no detergent
# Summary of the method: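 Detergent-free condition (0.00005% Triton X-100) in acetate buffer pH 5.5 with DTT. 1.5 nM enzyme and compound were pre-mixed 15 min, then 2 uM Z-FR-AMC substrate added; reaction progress from fluorescence change between first and third reads (60 s).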
# Potency means the concentration at half of the fitted maximal effect; tags describe the fitted curve by direction and shape.
SMILES,Potency,"max response, negative = inhibition"
FC(F)(F)COc1nc(N2CCOCC2)nc(N(c2ccccc2)c2ccccc2)n1,"inconclusive: 31.6 µM [activator, single point]",
Cc1ccc(-c2nc3ccc(C(=O)O)cc3nc2-c2ccc(C)cc2)cc1,"inconclusive: 31.6 µM [activator, single point]",
COc1ccc(OC)c(C2Nc3c(C)cc(C)cc3-c3cc(C)nn32)c1 (stereo unspecified),"inconclusive: 31.6 µM [activator, single point]",
Cc1ccc(NS(=O)(=O)c2ccc3c(c2)CC(=O)N3)cc1Cl,active: 15.8 µM,
COc1ccc2c(c1)O[C@@H](c1cccc(C(F)(F)F)c1)[C@H](OC(=O)Nc1ccc(OC(F)F)cc1)C2=O,"inconclusive: 39.8 µM [inhibitor, single point]",
CCC1(C)Cc2c(sc3c2c(=O)n(-c2ccccc2)c(=O)n3C)CO1 (stereo unspecified),,inactive: 19.7%
CCc1c(C)sc2c1CCN(C(=O)Nc1ccccc1C(=O)OC)C2c1ccc(OC)cc1 (stereo unspecified),"inconclusive: 5.01 µM [inhibitor, single point]",
CCC(SC1=N/C(=C/c2ccccc2OC)C(=O)N1c1ccccc1)C(=O)Nc1cc(C)on1 (stereo unspecified),"inconclusive: 39.8 µM [inhibitor, single point]",
Cc1ccc(Cl)cc1NC(=O)C(Cc1ccccc1)NS(=O)(=O)c1cccc2nsnc12 (stereo unspecified),active: 25.1 µM,
COc1ccc(C)cc1NC(=O)c1c2c(nc3ccccc13)C(=O)N(C1CCCCC1)C2,"inconclusive: 31.6 µM [activator, single point]",
O=C(NCc1ccccc1Cl)C1CCN(S(=O)(=O)Cc2ccccc2)CC1,"inconclusive: 39.8 µM [activator, single point]",
CSCCC(NC(=O)c1ccc([N+](=O)[O-])cc1Cl)C(=O)OCC(=O)C12CC3CC(CC(C3)C1)C2 (stereo unspecified),active: 25.1 µM,
CCOc1cc(-c2cc(-c3ccc(N)cc3)nc(N)c2C#N)ccc1O,"inconclusive: 31.6 µM [inhibitor, single point]",
COc1ccc(-c2nc(C(N)=O)c3[nH]c(=O)n(-c4cccc(Cl)c4)c3n2)cc1OC,,inconclusive: 225% [activator]
CCN(CC)CCC[C@H](C)Nc1c2ccc(Cl)cc2nc2ccc(OC)cc12,,inactive: -5.58%
Cc1cccc(CCNC(=O)C2CCC(CNS(=O)(=O)c3ccccc3)CC2)c1 (stereo unspecified),,inactive: -3.14%
COc1ccc(/C=C/C(=O)OCC(=O)Nc2cc(C(F)(F)F)ccc2Cl)cc1,active: 25.1 µM,
COc1cccc(-n2c(/C=C/c3ccccc3O)nc3ccccc3c2=O)c1,active: 20 µM,
CS(=O)(=O)N1CCN(c2ccc([N+](=O)[O-])c(NCc3ccccc3)c2)CC1,"inconclusive: 39.8 µM [inhibitor, single point]",
COCCCNC(=O)c1ccc(Cn2c(=O)c3ccccc3n(CC(=O)Nc3c(C)cccc3C)c2=O)cc1,"inconclusive: 39.8 µM [activator, single point]",
CNc1oc(/C=C/c2ccccc2)nc1C#N,"inconclusive: 39.8 µM [inhibitor, single point]",
Cc1nn2c(C)c(C(=O)N3CCN(c4ccccc4F)CC3)cnc2c1-c1ccc(F)cc1,"inconclusive: 25.1 µM [activator, single point]",

SMILES,Potency,"max response, negative = inhibition"
COc1ccc(N2CC(NC(=O)/C=C\c3ccc4c(c3)OCO4)CC2=O)cc1 (stereo unspecified),"inconclusive: 25.1 µM [inhibitor, single point]",
Cn1c(=O)oc2cc(S(=O)(=O)Nc3ccc4c(c3)OCO4)ccc21,active: 31.6 µM,
COCCN(CCOC)c1nc(N)c2c(N)nc3c(c2c1C#N)CC(=O)N3Cc1ccc(Cl)cc1,"inconclusive: 39.8 µM [activator, single point]",
CCOC(=O)c1c(NC(=O)c2cccs2)sc2c1CCC2,"inconclusive: 31.6 µM [inhibitor, single point]",
COc1ccc(N(CC(=O)N2c3ccccc3CC2C)S(=O)(=O)c2c(C)nn(C)c2C)cc1 (stereo unspecified),"inconclusive: 31.6 µM [activator, partial curve]",
O=C(Nc1nonc1-c1ccc(Cl)cc1)c1ccccc1F,,inactive: -16.3%
CCOC(=O)c1scc(-c2ccccc2)c1S(=O)(=O)Nc1ccc(N(C)C)cc1,"inconclusive: 39.8 µM [inhibitor, single point]",
O=S(=O)(Nc1nc2ccccc2nc1Nc1ccc(N2CCOCC2)cc1)c1cc(Cl)ccc1Cl,active: 20 µM,
O=C(CCC1N=C2c3ccccc3N=C(SCc3ccccc3Cl)N2C1=O)NCCc1ccccc1 (stereo unspecified),"inconclusive: 7.94 µM [activator, full curve]",
Cc1ccc(C)n1NC(=O)c1ccccc1Cl,"inconclusive: 15.8 µM [inhibitor, single point]",
COc1ccc2c(Sc3ccccc3)c(C(=O)NCC(C)c3ccccc3)[nH]c2c1 (stereo unspecified),"inconclusive: 31.6 µM [activator, single point]",
Cc1cc(C)nc(NS(=O)(=O)c2ccc(NC(=O)c3ccccc3O)cc2)n1,,inactive: 12.4%
CCCCOc1ccc(C(=O)N2CC(=O)Nc3ccc(Br)cc3C2c2ccc(F)cc2)cc1 (stereo unspecified),active: 25.1 µM,
COc1ccc(Br)cc1Cn1nnc(C(=O)Nc2ccc(C)cc2C)c1N,"inconclusive: 31.6 µM [inhibitor, single point]",
Cc1nc2ccccc2n1CCc1nc2c3ccccc3nc(SCC(=O)Nc3cccc(C(F)(F)F)c3)n2n1,"inconclusive: 3.98 µM [activator, partial curve]",
CCOC(=O)C1CCN(C(=O)c2sc3nc(-c4ccc(F)cc4)cn3c2C)CC1,"inconclusive: 39.8 µM [activator, single point]",
COc1ccccc1C(=O)NCCn1cc(SCC(=O)Nc2nnc(C)s2)c2ccccc21,"inconclusive: 39.8 µM [activator, single point]",
CCCCOc1ccc(C(=O)Nc2ccc(S(=O)(=O)Nc3nc(C)cc(C)n3)cc2)cc1,"inconclusive: 20 µM [activator, partial curve]",
Cc1ccc2nc(-c3ccc(NC(=O)COC(=O)c4ccco4)cc3)sc2c1,"inconclusive: 25.1 µM [inhibitor, single point]",
CC(C)(C)C1CCc2c(sc(NC(=O)c3ccco3)c2C(N)=O)C1 (stereo unspecified),,inactive: -24.6%
CCOC(=O)N1CCN(C(=O)CSc2ccccc2)CC1,,inactive: -3.31%
CCOC(=O)c1cnc2c(OC)cccc2c1N1CCN(c2ccccc2OC)CC1,"inconclusive: 31.6 µM [activator, single point]",

SMILES,Potency,"max response, negative = inhibition"
CC1=C(C(=O)Nc2cccnc2)C(c2ccccc2)n2nc(SCc3ccccc3)nc2N1 (stereo unspecified),,inactive: 9.17%
CCOC(=O)C1CCN(C(=O)CCc2c(C)nc3cc(-c4ccccc4)nn3c2C)CC1,"inconclusive: 31.6 µM [activator, single point]",
Cc1sc(NC(=O)c2cccc([N+](=O)[O-])c2)c(C(N)=O)c1-c1ccc(C(C)(C)C)cc1,active: 12.6 µM,
COc1ccc(C)cc1NS(=O)(=O)c1c(C)nc2sc(C)cn2c1=O,"inconclusive: 39.8 µM [activator, single point]",
COc1cc(OC)c(NC(=O)c2cc(C(C)=O)n3ccccc23)cc1Cl,,inactive: 4.34%
COc1ccc(OCC(=O)N(Cc2cccc(OC)c2)C2CCS(=O)(=O)C2)cc1 (stereo unspecified),,inactive: 0.407%
N[C@@H](CSCc1ccc(I)cc1)C(=O)O,,inactive: 5.01%
COc1cc(C(=O)OCC(=O)Nc2cc(C)on2)ccc1OCc1ccccc1Cl,"inconclusive: 39.8 µM [inhibitor, single point]",
Cc1ccc(S(=O)(=O)c2cc3ccccc3oc2=Nc2ccc3c(c2)OCCO3)cc1,"inconclusive: 31.6 µM [inhibitor, single point]",
CC1=C(c2ccc(C)cc2)S(=O)(=O)N(Cc2ccc(C(=O)Nc3ccccc3C)cc2)C1=O,"inconclusive: 31.6 µM [inhibitor, single point]",
Cc1cc(O)c(C(c2ccc(Cl)cc2)N2CCN(c3ccccc3)CC2)c(=O)n1Cc1ccco1 (stereo unspecified),"inconclusive: 39.8 µM [inhibitor, single point]",
Cc1ccc(CCNC(=O)c2ccc(CS(=O)(=O)c3ccc(Cl)cc3)o2)cc1,,inactive: 9.7%
CCOc1ccccc1NC(=O)n1ncc2cc(Cl)ccc21,,inactive: 0.0202%
Nc1nonc1-c1nc2ccccc2n1Cc1c(Cl)cccc1Cl,active: 25.1 µM,
COc1ccc(CCNC(=O)c2ccc3nc(Cc4ccccc4)oc3c2)cc1OC,"inconclusive: 31.6 µM [activator, single point]",
CCOC(=O)c1ccc(Cl)c(NC(=O)c2ccc(-c3ccccc3)cc2)c1,"inconclusive: 31.6 µM [inhibitor, single point]",
CCOc1ccc(-c2nnc(SCC(=O)Nc3cc(F)ccc3F)o2)cc1,active: 10 µM,
COCCCNC(=O)c1ccc(Cn2c(=O)c3ccccc3n(Cc3ccccc3C)c2=O)cc1,"inconclusive: 39.8 µM [activator, single point]",
CCCOc1ccc(C(=O)Nc2ccc3nn(-c4ccc(OC)c(Cl)c4)nc3c2)cc1,,inactive: 18.1%
Cc1ccc(Nc2nnc(C3C(=O)N(C)C4(C)CC3c3cc(Br)ccc3O4)s2)cc1 (stereo unspecified),"inconclusive: 39.8 µM [inhibitor, single point]",
O=C(O)CSc1cc(-c2ccccc2)nc2ccccc12,,inactive: 1.2%
Cc1ccccc1C(=O)NC(=S)Nc1ccc(Oc2ccc(Cl)cc2)cc1,"inconclusive: 31.6 µM [inhibitor, single point]",

# Reference: PubChem BioAssay AID1476 (National Center for Advancing Translational Sciences (NCATS), 2009)
